Measured values published in the supplement of paper PMC4604168 (melanoma cell lines).
Some of the results follow. Single values are uncertain, as repeats are few or missing.
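Also: cell number obtained by counting DAPI-stained nuclei in high-throughput microscope images with image analysis software, screen run in 1,536-well plates.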

These compounds were tested on WM1716 (assay: cell count relative to DMSO control; melanoma cells; higher = more viable cells). Conditions: library dose: low library concentration; 72 h.
For `NC(=O)Nc1cc(-c2cccc(F)c2)sc1C(=O)N[C@H]1CCCNC1` + CC(C)CCN1c2nc(Nc3cc(F)c(O)c(F)c3)ncc2N(C)C(=O)C1C [BID1870] (first compound 0.02 µM, partner dose 0.2 µM), the cell count was 82.2%.
`CN(C)S(=O)(=O)c1ccc2c(c1)/C(=C/c1cc3c([nH]1)CCCC3)C(=O)N2` + O=C(O)c1ccc(-c2c[nH]c3ncc(-c4ccccc4)cc23)cc1C1CCCC1 [GSK650394] (first compound 0.4 µM, partner dose 0.16 µM) gave a cell count of 116%.
In the case of `Cc1nc(Nc2ncc(C(=O)Nc3c(C)cccc3Cl)s2)cc(N2CCN(CCO)CC2)n1` [dasatanib] + O=C(Nc1cccc(Cl)c1)Nc1ncc(CCNc2ncnc3ccsc23)s1 [SNS314] (first compound 0.004 µM, partner dose 0.0008 µM), the cell count is reported as 83.8%.
Compound `CN(C)S(=O)(=O)c1ccc2c(c1)/C(=C/c1cc3c([nH]1)CCCC3)C(=O)N2` + COc1cc2ncnc(Nc3ccc(Oc4ccccc4)cc3)c2cc1OC [SrcI1] (first compound 0.4 µM, partner dose 2 µM) has a cell count of 113%.
For `C=CCn1c(=O)c2cnc(Nc3ccc(N4CCN(C)CC4)cc3)nc2n1-c1cccc(C(C)(C)O)n1` + N#Cc1c(O)c2c(-c3ccc(-c4ccccc4O)cc3)csc2[nH]c1=O [A769662] (first compound 0.02 µM, partner dose 2 µM), the cell count was 102%.
`CN(C)S(=O)(=O)c1ccc2c(c1)/C(=C/c1cc3c([nH]1)CCCC3)C(=O)N2` + Cn1cc(/C=C2\C(=O)Nc3cccnc32)c2ccccc21 [GW441756] (first compound 0.4 µM, partner dose 0.4 µM) gave a cell count of 113%.
`NCC(=O)Nc1ccc(-n2nc(C(F)(F)F)cc2-c2ccc3c(ccc4ccccc43)c2)cc1` + CN(NC(=O)CC(=O)NN(C)C(=S)c1ccccc1)C(=S)c1ccccc1 [STA4783] (first compound 1 µM, partner dose 0.006 µM) showed a cell count of 70.5%.
`OCCn1cc(-c2cnc3nnn(Cc4ccc5ncccc5c4)c3n2)cn1` + COc1ccc(-c2ccc3c(N4CCOCC4)nc(N4C[C@@H](C)O[C@@H](C)C4)nc3n2)cc1CO [KU0063794] (first compound 1 µM, partner dose 0.02 µM) showed a cell count of 107%.
With `Cc1nc(Nc2ncc(C(=O)Nc3c(C)cccc3Cl)s2)cc(N2CCN(CCO)CC2)n1` [dasatanib] + Cc1ccc(NC(=O)c2cccc(N(C)C)c2)cc1NC(=O)c1ccc(O)cc1 [ZM336372] (first compound 0.004 µM, partner dose 2 µM) the cell count was 85.2%.
For `CO[C@@H]1[C@H](N(C)C(=O)c2ccccc2)C[C@H]2O[C@]1(C)n1c3ccccc3c3c4c(c5c6ccccc6n2c5c31)C(=O)NC4` [Midostaurin] + CC(C)(C)c1cnc(CSc2cnc(NC(=O)C3CCNCC3)s2)o1 [SNS-032] (first compound 0.08 µM, partner dose 0.01 µM), the cell count was 80%.
For `C[C@]1(c2nc3c(C(N)=O)cccc3[nH]2)CCCN1` [Veliparib] + COc1ccc(-c2ccc3c(N4CCOCC4)nc(N4C[C@@H](C)O[C@@H](C)C4)nc3n2)cc1CO [KU0063794] (first compound 1.4 µM, partner dose 0.02 µM), the cell count was 89.5%.
`C[C@]1(c2nc3c(C(N)=O)cccc3[nH]2)CCCN1` [Veliparib] + NCC(=O)Nc1ccc(-n2nc(C(F)(F)F)cc2-c2ccc3c(ccc4ccccc43)c2)cc1 [OSU03012] (first compound 1.4 µM, partner dose 1 µM) gave a cell count of 89.8%.
`Cc1nc(Nc2ncc(C(=O)Nc3c(C)cccc3Cl)s2)cc(N2CCN(CCO)CC2)n1` [dasatanib] + COc1ccc(-c2ccc3c(N4CCOCC4)nc(N4C[C@@H](C)O[C@@H](C)C4)nc3n2)cc1CO [KU0063794] (first compound 0.004 µM, partner dose 0.02 µM) was tested, and the cell count was 60.1%.
For `Cc1nc(Nc2ncc(C(=O)Nc3c(C)cccc3Cl)s2)cc(N2CCN(CCO)CC2)n1` [dasatanib] + O=S(=O)(c1ccccc1)N(CC(F)(F)F)c1ccc(C(O)(C(F)(F)F)C(F)(F)F)cc1 [T0901317] (first compound 0.004 µM, partner dose 1.4 µM), the cell count was 69.5%.
